{"source": "PubChem BioAssay AID1346428", "about": "(National Center for Advancing Translational Sciences (NCATS), 2018)", "note": "Several values for one entry are separate records, joined by “and”; a condition that tells them apart may be missing. Identical values can stand only once. In all, about 48,000 compounds went through this assay and about 1,200 (2.5%) were called active. Not shown: some 2% with an inconclusive outcome.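 The calls were made as follows: active = activation of at least 60% and not above a set upper limit (about 1 call in 100 departs from these limits); inconclusive = activation of 40% to 60%, or above that upper limit; inactive = activation under 40%.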 The list shows a part of the results."}
{"target": "Probable G-protein coupled receptor 32 (Homo sapiens) (UniProt O75388)", "sequence (O75388 whole entry, looked up, the tested form may be a part)": "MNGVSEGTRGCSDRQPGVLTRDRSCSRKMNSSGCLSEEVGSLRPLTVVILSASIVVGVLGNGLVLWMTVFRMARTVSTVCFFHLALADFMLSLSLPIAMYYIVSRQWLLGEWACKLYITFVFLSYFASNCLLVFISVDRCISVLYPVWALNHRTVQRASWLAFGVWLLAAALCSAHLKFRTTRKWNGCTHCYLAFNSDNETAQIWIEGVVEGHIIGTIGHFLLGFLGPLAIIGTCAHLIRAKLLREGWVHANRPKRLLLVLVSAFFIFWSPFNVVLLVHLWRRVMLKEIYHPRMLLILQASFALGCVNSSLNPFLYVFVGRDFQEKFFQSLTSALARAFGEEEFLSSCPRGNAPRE", "experiment": "qHTS for Agonists of Human Resolvin D1 Receptor DRV1; also: 0% is about no effect", "details": "CHO-K1 GPR32 beta-arrestin PathHunter luminescence, 90 min; at 76.9 µM; hits give high values; zero percent set by DMSO-only wells", "how_it_was_run": "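GPR32 activation in stably transfected CHO-K1 cells, detected as beta-arrestin recruitment by enzyme-fragment complementation. Compound exposure: 90 min, 37 °C.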"}
{"smiles": "Cc1ccc(Cn2c(SCC(=O)NCc3ccccc3)nc3ccsc3c2=O)cc1", "activation": "inactive: -15.6%"}
{"smiles": "CCOc1ccc(NC(=O)Cn2c(=O)n(CCCC(=O)NCCc3ccc(Cl)cc3)c(=O)c3ccccc32)cc1", "activation": "inactive: -3.86%"}
{"smiles": "COc1ccc(-c2[nH]c(-c3ccc(O)cc3)nc2-c2ccccc2)cc1", "activation": "inactive: -16.3%"}
{"smiles": "Cc1ccc([N+](=O)[O-])cc1NC(=O)CN(c1ccccc1)S(=O)(=O)N(C)C", "activation": "inactive: -8.66%"}
{"smiles": "Cc1oc(-c2ccccc2F)nc1CS(=O)(=O)CC(=O)N1CCN(c2ccccc2)CC1", "activation": "inactive: 25.9%"}
{"smiles": "CCOC(=O)c1cccc(NC(=O)C(C)n2nc(C)c3c(C)n(-c4ccccc4)nc3c2=O)c1", "note": "(stereo unspecified)", "activation": "inactive: -2.67%"}
{"smiles": "CNC(=O)Oc1ccc2c(c1)[C@]1(C)CCN(C)[C@@H]1N2C", "activation": "inactive: 4.79% and inactive: 9.5%"}
{"smiles": "CCOC(=O)c1cccc(NC(=O)CCc2nc3cccnc3n2-c2ccccc2)c1", "activation": "inactive: 16.2%"}
{"smiles": "CCOc1ccc(NC(=O)C2(c3cccs3)CCOCC2)cc1", "activation": "inactive: -13.8%"}
{"smiles": "Cc1cc(C)c2sc(NC(=O)c3ccc(S(=O)(=O)N4CCCC4)cc3)nc2c1", "activation": "inactive: -11.4%"}
{"smiles": "O=C1C(SCCO)=C(SCCO)C(=O)c2ccccc21", "activation": "inactive: -22.1%"}
{"smiles": "COc1ccccc1C(=O)Nc1nc2nc(C)cc(=O)n2[nH]1", "activation": "inactive: 3.08%"}
{"smiles": "O=C(CN1C(=O)COc2ccc(S(=O)(=O)NC3CCCC3)cc21)Nc1ccc(Cl)cc1F", "activation": "inactive: -16.5%"}
{"smiles": "CCOC(=O)c1c(C)oc2ccc(N(C(=O)c3ccncc3)S(=O)(=O)c3ccc(CC)cc3)cc12", "activation": "inactive: -24.1%"}
{"smiles": "COc1ccc(OC)c(S(=O)(=O)Nc2ccc3c(c2)n(C)c(=O)n3C)c1", "activation": "inactive: -19.4%"}
{"smiles": "CCOC(=O)c1c(C)[nH]c(CCC(=O)Nc2cc(Cl)ccc2OC)c1C", "activation": "inactive: -20.4%"}
{"smiles": "O=C(O)CSCC(=O)NC1CCSC1=O", "note": "(stereo unspecified)", "activation": "inactive: 1.1%"}
{"smiles": "Cc1nc(N2CCOCC2)c2c(C(=O)NCc3ccc(Cl)cc3)c(C)oc2n1", "activation": "inactive: -9.27%"}
{"smiles": "CCc1ccc(NC(=O)c2nc3nc(C)cc(C(F)F)n3n2)cc1", "activation": "inactive: 38.7%"}
{"smiles": "CN(C)S(=O)(=O)N(CC(=O)Nc1ccc(C(F)(F)F)cc1)c1ccccc1", "activation": "inactive: 19.1%"}
{"smiles": "Cc1ccc(OCCSc2nc3ccc(NC(=O)c4cccs4)cc3s2)cc1", "activation": "inactive: 42.7%"}
{"smiles": "Cc1sc(-n2cccc2)c(C(C)NC(=O)Nc2cccc(C(F)(F)F)c2)c1C", "note": "(stereo unspecified)", "activation": "inactive: 31.3%"}
{"smiles": "COc1cc(OC)cc(C(=O)NCCc2csc3nc(-c4ccccc4F)nn23)c1", "activation": "inactive: -1.41%"}
{"smiles": "COCCOCC(OC)OC", "activation": "inactive: -9.13%"}
{"smiles": "Cc1ccc(S(=O)(=O)N2CC=C(c3c(C)n(CC(=O)N4CCCC4)c4ccccc34)CC2)cc1C", "activation": "inactive: -21.1%"}
{"smiles": "CCOc1cccc(C(=O)N(Cc2ccc(C)o2)C2CCS(=O)(=O)C2)c1", "note": "(stereo unspecified)", "activation": "inactive: -14.2%"}
{"smiles": "COc1cccc(CNC(=O)c2cc(-c3ccc(Cl)cc3)n[nH]2)c1", "activation": "inactive: 5.39%"}
{"smiles": "CCC(CC)c1nn2c(=O)cc(COc3ccc(NC(=O)c4cccc(C)c4)cc3)nc2s1", "activation": "inactive: -5.96%"}
{"smiles": "O=C(CCC(=O)N1CCSc2ccccc21)Nc1ccc(Cl)cc1", "activation": "inactive: -21.8%"}
{"smiles": "COc1ccccc1CNS(=O)(=O)c1cc(Br)cc2c1N(C(=O)C1CC1)CC2", "activation": "inactive: 9.58%"}
{"smiles": "COc1ccc(CNc2nc(-c3ccc(Cl)cc3)nn2S(=O)(=O)c2ccc(C)cc2)cc1", "activation": "inactive: 33.5%"}
{"smiles": "COc1ccc(CNC(=O)c2ccc3c(c2)N(Cc2cc(C)ccc2C)C(=O)CS3)cc1", "activation": "inactive: 9.38%"}
{"smiles": "CC1=C(C(=O)Nc2cccc(Cl)c2C)C2(CCCCCC2)OC1=O", "activation": "inactive: -3.34%"}
{"smiles": "CC1CCN(S(=O)(=O)c2ccc3c(c2)CCN3)CC1", "activation": "inactive: -26.6%"}
{"smiles": "O=C(c1cnn(-c2ccc(F)cc2)c1-n1cccc1)N1CCN(c2ccc(F)cc2)CC1", "activation": "inactive: 19%"}
{"smiles": "CCNc1nc(NCc2ccc(F)cc2)c2cnn(C)c2n1", "activation": "active: 72.2%"}
{"smiles": "Nc1ccc2c3c(cccc13)C(=O)NC2=O", "activation": "inactive: 11.3%"}
{"smiles": "O=c1[nH]cnc2[nH]ncc12", "activation": "inactive: 10.8% and inactive: 8.45%"}
{"smiles": "CCc1ccc(S(=O)(=O)c2nnn3c2nc(Nc2cc(OC)ccc2OC)c2sccc23)cc1", "activation": "inactive: -6.08%"}
{"smiles": "COc1ccccc1Nc1sc(C(=O)c2ccc(C)cc2C)c(N)c1S(=O)(=O)c1ccccc1", "activation": "inactive: -0.683%"}
{"smiles": "O=S(=O)(NCCS(=O)(=O)N1CCN(c2ccccc2)CC1)c1ccc(Br)cc1", "activation": "inactive: -10.3%"}
{"smiles": "COc1ccc(CC(=O)Nc2sc3c(c2C(=O)Nc2ccccc2)CCCCC3)cc1", "activation": "inactive: -6.06%"}
{"smiles": "Cc1ccc(CCNC(=O)CS(=O)Cc2nc(-c3ccccc3Cl)oc2C)cc1", "note": "(stereo unspecified)", "activation": "inactive: -5.02%"}
{"smiles": "Cc1c(C(=O)Nc2nc(-c3ccc(F)cc3)ns2)oc2ccc(Cl)cc12", "activation": "inactive: -7.08%"}
{"smiles": "COc1ccccc1C(=O)Nc1ccccc1OCc1cc(=O)n2ccccc2n1", "activation": "inactive: -14%"}
{"smiles": "O=C(Cc1ccccc1)Nc1sc2c(c1C(=O)Nc1ccc(Br)cc1)CCC2", "activation": "inactive: -18.6%"}
{"smiles": "Cc1ccc2oc(C(=O)Nc3cccc(Cl)c3)cc(=O)c2c1", "activation": "inactive: 5.49%"}
{"smiles": "O=C(NCCc1ccccc1)c1nc(-c2ccc(Cl)cc2)n2c1CCCCC2", "activation": "inactive: -49.9%"}
{"smiles": "O=C(Nc1ccc(F)cc1)c1csc2c1CCCCC2", "activation": "inactive: -2.49%"}
{"smiles": "COc1cccc(N2CC(NC(=O)c3ccc(S(=O)(=O)N4CCOCC4)cc3)CC2=O)c1", "note": "(stereo unspecified)", "activation": "inactive: -8.09%"}
{"smiles": "O=C(CS)Nc1ccccc1", "activation": "inactive: -57.4%"}
{"smiles": "C/C=C1\\[C@H]2C=C(C)C[C@]1(N)c1ccc(=O)[nH]c1C2", "activation": "inactive: 2.9%"}
{"smiles": "COc1ccc(CNc2nc3c(-c4ccccc4)nnn3c3ccccc23)cc1", "activation": "inactive: 2.86%"}
{"smiles": "Cc1cc(C)c(NC(=O)CN(C)S(=O)(=O)c2ccc3c(c2)CCC(=O)N3)c(C)c1", "activation": "inactive: 2.61%"}
{"smiles": "COc1cc2c(cc1OC)n(Cc1cccc(C(F)(F)F)c1)c(=O)n1nc(-c3ccccc3)nc21", "activation": "inactive: 10.9%"}
{"smiles": "O=C(Oc1cccc2cccnc12)c1ccccc1", "activation": "inactive: -35.6%"}
